# Data taken from article PMC4336329 (PLoS ONE, 2015).
# In all, about 310,000 compounds went through this assay and about 2,200 (0.71%) showed an effect of 50% or more. The effect is printed as a negative number. The list shows a part of the results.
# Target: human ether-à-go-go-related gene (hERG) potassium channel (human, UniProt Q12809)
# Experiment: primary screen, population patch clamp on CHO cells stably expressing hERG
# Sequence of human ether-à-go-go-related gene (hERG) potassium channel (Q12809 whole entry, looked up): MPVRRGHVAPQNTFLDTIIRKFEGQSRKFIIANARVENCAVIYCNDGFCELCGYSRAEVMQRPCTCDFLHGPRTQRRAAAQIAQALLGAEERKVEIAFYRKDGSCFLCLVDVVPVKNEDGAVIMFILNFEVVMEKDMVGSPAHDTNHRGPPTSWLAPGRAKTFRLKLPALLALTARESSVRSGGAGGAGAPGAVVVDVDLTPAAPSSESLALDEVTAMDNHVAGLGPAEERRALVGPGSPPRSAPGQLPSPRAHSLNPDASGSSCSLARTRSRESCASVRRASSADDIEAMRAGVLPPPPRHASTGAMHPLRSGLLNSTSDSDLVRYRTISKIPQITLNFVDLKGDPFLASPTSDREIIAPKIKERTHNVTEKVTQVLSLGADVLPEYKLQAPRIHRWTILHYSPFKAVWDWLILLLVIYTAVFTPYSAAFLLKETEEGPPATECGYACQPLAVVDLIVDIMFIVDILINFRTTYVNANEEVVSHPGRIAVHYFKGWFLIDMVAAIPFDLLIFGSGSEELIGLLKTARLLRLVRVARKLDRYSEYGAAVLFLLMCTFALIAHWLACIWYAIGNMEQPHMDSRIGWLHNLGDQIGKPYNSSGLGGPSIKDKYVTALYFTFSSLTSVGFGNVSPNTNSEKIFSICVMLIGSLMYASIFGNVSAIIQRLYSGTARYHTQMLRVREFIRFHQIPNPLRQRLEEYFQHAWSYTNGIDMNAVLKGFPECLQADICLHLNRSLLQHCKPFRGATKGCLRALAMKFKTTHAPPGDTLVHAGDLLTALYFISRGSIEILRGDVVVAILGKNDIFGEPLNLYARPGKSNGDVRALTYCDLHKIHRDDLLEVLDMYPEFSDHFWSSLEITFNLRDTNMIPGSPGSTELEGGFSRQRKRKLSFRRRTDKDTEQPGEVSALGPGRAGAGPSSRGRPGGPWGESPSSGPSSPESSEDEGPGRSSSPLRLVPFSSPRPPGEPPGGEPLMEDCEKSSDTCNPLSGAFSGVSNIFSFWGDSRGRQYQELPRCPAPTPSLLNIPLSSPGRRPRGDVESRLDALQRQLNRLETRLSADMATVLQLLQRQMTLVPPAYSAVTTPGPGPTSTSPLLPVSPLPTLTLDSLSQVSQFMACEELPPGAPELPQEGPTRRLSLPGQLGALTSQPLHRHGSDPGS
row,Structure (SMILES),"hERG current change (%, negative = inhibition) at 1uM [%]"
1,C=CCc1ccccc1OCC(O)CNC(=O)c1ccccc1C(=O)O (centres unmarked),11.4
2,NS(=O)(=O)c1ccc2nc(NC(=O)C3CCCO3)sc2c1 (centres unmarked),11.5
3,Cc1cccc(C)c1Nc1nnc(SCC(=O)Nc2ncc(C(F)(F)F)cc2Cl)s1,1.78
4,Cc1cc(Cl)c(OCCCSc2nc(C)cc(=O)[nH]2)c(Br)c1,-7.47
5,Cl.NS(=O)(=O)c1ccc(CCNCc2cc(Br)ccc2OCc2ccccc2F)cc1,-37.4
6,Nc1n[nH]c(-c2ccccc2)c1-c1ccccc1,0.625
7,O=C(NCC1CCCO1)c1ccccc1-c1nc(-c2ccccc2Cl)no1 (centres unmarked),7.26
8,O=C(CNC(=O)C1COc2ccccc2O1)N/N=C/c1cc(Br)c(O)c(Br)c1 (centres unmarked),9.48
9,Cc1ccc(NC(=S)NCC(C)C)cc1,13.7
10,CC(=O)c1cccc(NC(=S)N2CCN(S(C)(=O)=O)CC2)c1,12.8
11,Cc1nc(SCC(=O)Nc2ccc(N3CCOCC3)cc2)nc(C)c1C,3.35
12,Cc1cccnc1NC(=O)c1ccc(Cl)c(S(=O)(=O)N2CCCCC2)c1,-0.63
13,O=C(CN1CCCC1)Nc1cccc(Cl)c1Cl,13
14,Cc1[nH]n(-c2ccccc2)c(=O)c1-c1ccccc1,2.64
15,CC(C)(C)C1=Nn2c(nnc2-c2ccccn2)SC1,0.753
16,CCOC(=O)C1CCN(S(=O)(=O)c2cccc(-c3cn4cc(Cl)ccc4n3)c2)CC1,-17.9
17,Cc1cc(C)n(CC(=O)NC2CCCc3c2cnn3-c2ccc(C)c(C)c2)n1 (centres unmarked),1.12
18,CCOCC(=O)Nc1ccc(S(=O)(=O)NCC2CCCO2)cc1 (centres unmarked),15.5
19,CCC1(CC)NC(=O)N(CC(=O)OCC(=O)NC(=O)c2ccccc2)C1=O,8.15
20,C=CCCC(=O)N1CCCC(Cc2cccc(Cl)c2)(C(=O)OCC)C1 (centres unmarked),17
21,COc1ccccc1-n1ccnc(SCC(=O)NC2CCCC2)c1=O,10.1
22,N#CCCn1c2ccccc2c2nc3ccccc3nc21,10.3
23,COc1ccc(NC(=O)c2nn(C)c3c2CS(=O)(=O)c2ccccc2-3)cc1,15.9

row,Structure (SMILES),"hERG current change (%, negative = inhibition) at 1uM [%]"
1,CSc1ncccc1C(=O)OCC(=O)N1CCN(S(=O)(=O)c2ccc(C)cc2C)CC1,18.2
2,CC1CCc2sc(C(=O)NCC(c3ccco3)N3CCCCC3)cc2C1 (centres unmarked),6.47
3,CC(C)C(C(=O)NCC1CCCO1)N(CC1CCCO1)C(=O)CNS(=O)(=O)c1ccccc1 (centres unmarked),20.6
4,Cc1occc1-c1nnc(SCC(N)=O)n1Cc1ccccc1,4.3
5,Cc1ccc2nc(NCCCO)nc(-c3ccccc3)c2c1,-2.03
6,O=C(Nc1ccccc1NC(=O)NC1CCCCC1)NC1CCCCC1,1.34
7,Cc1cccc(NC(=O)CSc2nnc(CCNC(=O)OC(C)(C)C)o2)c1C,13.1
8,CC(C)OCCCn1c(SCC(=O)Nc2ccccc2C(F)(F)F)nc2nccnc2c1=O,17
9,CC(C)CCNC(=O)c1cc([N+](=O)[O-])ccc1N1CCOCC1,3.19
10,CC(=O)Nc1ccc(S(=O)(=O)N2CCSC2c2ccc(Cl)cc2)cc1 (centres unmarked),7.19
11,Cc1ccc(S(=O)(=O)N2CCCCC2)cc1C(=O)NCC1CCCO1 (centres unmarked),6.66
12,COc1ccccc1-c1nn2c(=O)cc(C)nc2s1,11.1
13,CC(C(=O)NC1CCS(=O)(=O)C1)N1C(=O)/C(=C/c2ccc(Cl)cc2)SC1=S (centres unmarked),15.6
14,C[N+]1(CC(O)COCC2COc3ccccc3O2)CCOCC1.[I-] (centres unmarked),11.8
15,Cc1cc(S(=O)(=O)Cc2noc(-c3c(C)noc3C)n2)c(C)cc1Cl,5.81
16,COCCCNC(=O)CNC(=O)c1cn(-c2ccccc2OC)c(=O)c2ccccc12,-10.1
17,O=C(Nc1cc(Oc2ccc(Cl)cc2)cc([N+](=O)[O-])c1)c1ccco1,11.1
18,COc1ccc([C@H]2C=C(C(=O)O)O[C@@H](OCCCCO)C2)cc1,8.72
19,CCn1c(CC(=O)Nc2ccccc2F)nnc1SCC(=O)NC1CCCCC1,11.2
20,COc1ccc(/C(N)=N/OC(=O)c2c(-c3ccccc3Cl)noc2C)cc1OC,6.08
21,COC(=O)C1Cc2ccccc2CN1S(=O)(=O)c1ccc(F)cc1 (centres unmarked),11.9
22,O=C(NCC1CCCO1)c1ccc(NC(=O)c2ccc([N+](=O)[O-])cc2)cc1 (centres unmarked),14.3
23,CSC1=NC2(C)CCCCC2C12C=CC(=O)C=C2 (centres unmarked),11.8

row,Structure (SMILES),"hERG current change (%, negative = inhibition) at 1uM [%]"
1,CN(Cc1c(F)cccc1Cl)C(=O)c1ccc(COc2ccccc2)cc1,14.7
2,O=C1NC(=O)c2cc(NC(=O)C3COc4ccccc4O3)ccc21 (centres unmarked),12
3,COc1cnn(-c2ccc(C)cc2)c(=O)c1Cl,10.3
4,Cc1c(Br)c(C(F)(F)F)nn1CC(=O)N1CCCC1,0.474
5,CCOC(=O)c1cccc(NC(=O)C2CCC(CNc3c(N4CCOCC4)c(=O)c3=O)CC2)c1 (centres unmarked),12.1
6,O=c1cc(CSc2n[nH]c(=O)n2C2CC2)c2ccc(O)cc2o1,12.8
7,COc1cccc2cc(C(=O)OC(C)C(=O)c3ccc(C)cc3)c(=O)oc12 (centres unmarked),10.9
8,CCc1ccc(CNCc2ccc(OCC(O)CN(C)Cc3ccccc3)cc2)nc1 (centres unmarked),8.23
9,CCC1COC(c2cccn2Cc2ccccc2Cl)=N1 (centres unmarked),6.34
10,CN(C)C(=S)NC(=NCc1ccc([N+](=O)[O-])cc1)c1ccccc1,-60.3
11,COc1cc(OC)c2c(-c3ccccc3)cc(=O)oc2c1C(CC(=O)N1CCN(c2ccccc2)CC1)c1ccc(N(C)C)cc1 (centres unmarked),17.1
12,CCOc1cccc(C(=O)NC2=NCCS2)c1,9.09
13,Clc1ccc(Oc2nc3c(Cl)cccc3s2)cc1Cl,11.7
14,COC(=O)c1ccc(N=NN2CCCCC2)cc1,8.68
15,O=c1[nH]c2ccccc2cc1CN(CC1CCCO1)S(=O)(=O)c1ccccc1 (centres unmarked),-1.55
16,CC1CCN(S(=O)(=O)N2CCC(C(=O)NCCc3ccccc3)CC2)CC1,5.12
17,Cc1cccc(NC(=O)CN(CCc2ccccc2)S(C)(=O)=O)c1,14.1
18,O=c1oc2c(-c3cccc(F)c3)cc(O)cc2s1,3.43
19,Cn1c(=NC(=O)CS(=O)(=O)c2ccc(F)cc2)sc2ccccc21,7.07
20,CCn1c(SCC(=O)NC2CCCC2)nnc1C(C)NC(=O)c1ccccc1Br (centres unmarked),24.6
21,COC(=O)c1ccc(Nc2c([N+](=O)[O-])c(=O)oc3ccccc23)cc1,14.6
22,COc1ccccc1C(=O)N1CCN(Cc2c[nH]c3ccccc23)CC1.O=C(O)C(=O)O,-6.71
23,COc1cc(C)c(S(=O)(=O)NOCc2ccccc2)c(C)c1C,10

row,Structure (SMILES),"hERG current change (%, negative = inhibition) at 1uM [%]"
1,CCC1CCCCN1C(=O)Nc1cc(Cl)ccc1OC (centres unmarked),15.2
2,CCOC(=O)Cn1nc(C)c(NC(=O)COc2ccc([N+](=O)[O-])c(C)c2)c1C,4.27
3,CCCN(CC(=O)Nc1ccccc1C)C(=O)C1CCN(C(=O)Nc2ccccc2)CC1,-6.26
4,CC1(C)CC(=O)c2sc(NC(=O)C(C)(C)C)nc2C1,-3.76
5,CC(NC(=O)CNC(=O)C1CCCCC1)c1ccc(S(N)(=O)=O)cc1 (centres unmarked),14.9
6,Cc1ccc(C(=O)CCC(=O)N2CCN(c3ccccc3O)CC2)cc1,11.7
7,Cn1cccc1Cc1nnc(SCC(=O)NC2CCCC2)n1-c1ccc(F)cc1,1.97
8,O=C(Nc1ccc(S(=O)(=O)Nc2ncccn2)cc1)c1ccc(Br)o1,3.65
9,CCOc1ccc2c(c1)C(C)=CC(C)(C)N2S(=O)(=O)c1ccc(NC(C)=O)cc1,11.6
10,CC(C)Oc1ccc(C(=O)Nc2ccc(NC(=O)c3ccco3)c(Cl)c2)cc1,8.44
11,Cc1ccc(-n2c(O)c(/C=N/n3cnnc3)c3ccccc3c2=O)cc1 [14745934],9.28
12,COc1ccc(Cn2c(=O)oc3ccccc32)cc1F,13.5
13,CCOC(=O)CC1COc2ccccc2N1C(=O)c1ccc(C)cc1 (centres unmarked),7.32
14,O=C(NCCO)/C(=C/c1ccc2c(c1)OCO2)NC(=O)c1ccc(Br)cc1,-27.9
15,Cc1ccc(CNC(=O)CCn2ccc3cc(S(=O)(=O)N4CCCC4)ccc32)cc1,11.1
16,COc1ccc(N2CCN(c3ccc(C(=O)O)cc3[N+](=O)[O-])CC2)cc1,13.8
17,C=CCNC(=O)N1CCC(n2nccc2NC(=O)CCc2ccccc2)CC1,16.6
18,COc1ccc(NCc2nc3ccccc3n2C)cc1,3.96
19,O=C(Oc1ccccc1C(=O)N1CCOCC1)c1ccc(F)cc1,10.1
20,COc1cc2cc(C(c3nnnn3C3CCCC3)N3CCCCCC3)c(=O)[nH]c2cc1OC (centres unmarked),-3.59
